Measured values from a compilation of properties of binary mixtures (doi:10.1016/j.jct.2016.12.008).
Some of these densities may be calculated back from excess volumes.

Test: xn = mol fraction of the nth substance listed
Conditions: 100 kPa

CC[n+]1ccn(C)c1.N#C[S-] + O
mass density [kg/m3]
Conditions	288.15 K	293.15 K	298.15 K	303.15 K	308.15 K	313.15 K	318.15 K
x1 = 0.0006	999.7	–	997.6	–	994.5	–	990.7
x1 = 0.0012	–	–	998.1	–	995	–	991.2
x1 = 0.0018	1000.9	–	998.7	–	–	–	991.6
x1 = 0.0024	1001.5	–	999.2	–	996	–	992.1
x1 = 0.003	1002	–	999.7	–	996.5	–	992.5
x1 = 0.0036	–	–	1000.2	–	997	–	993
x2 = 0	1124	1120.9	1117.8	1114.8	–	1108.7	–
x2 = 0.1006	1122.2	–	–	1113	–	–	–
x2 = 0.1948	1120.3	1117.2	–	–	–	1104.9	–
x2 = 0.3026	1117.7	1114.6	–	1108.4	–	1102.3	–
x2 = 0.4011	1114.6	1111.5	1108.3	–	1102.1	1099	1095.9
x2 = 0.4979	1110.8	1107.6	1104.5	1101.3	1098.2	1095.1	1091.9
x2 = 0.6043	1104.8	1101.6	1098.4	1095.2	–	1088.8	–
x2 = 0.6887	1097.7	1094.4	1091.2	–	–	1081.6	1078.4
x2 = 0.7981	1083.1	–	–	–	–	–	–
x2 = 0.9105	1053.6	–	1048	1045.2	1042.3	–	1036.2
x2 = 0.9443	–	1036.3	1033.8	1031.2	1028.6	1025.8	1023
x2 = 0.9506	1035.3	1033	1030.6	1028.1	1025.5	–	1020
